The results in this text go back to the supplement of paper PMC8728848.

Holding throughout (experiment): glycan array binding signal (z-score within array); higher = stronger binding
What all share (conditions): glycan notation: IUPAC condensed, linker removed

The target in one experiment is Fuc(a1-2)Gal. The gist of the method: (§1)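 From the Consortium for Functional Glycomics database, 3228 arrays were curated, keeping only those whose protein sequence was available. Binding is given as a within-array Z-score averaged across arrays sharing a protein sequence and across linkers. Negative Z-scores can be read as non-binding.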
The next experiment has as its target Fuc(a1-2)Gal(b1-3)GalNAc. Put shortly:
as §1

Experiment [1] concerns the target Fuc(a1-2)Gal(b1-3)GalNAc(a1-3)[Fuc(a1-2)]Gal(b1-4)Glc. The gist of the method:
as §1

Experiment [2] concerns the target Fuc(a1-2)Gal(b1-3)GalNAc(a1-3)[Fuc(a1-2)]Gal(b1-4)GlcNAc. The gist of the method:
as §1

Experiment [3] deals with Fuc(a1-2)Gal(b1-3)GalNAc(b1-3)Gal. Put shortly: as §1
Experiment [4] addresses Fuc(a1-2)Gal(b1-3)GalNAc(b1-3)Gal(a1-4)Gal(b1-4)Glc. Put shortly:
as §1

In experiment [5] the target is Fuc(a1-2)Gal(b1-3)GalNAc(b1-4)[Neu5Ac(a2-3)]Gal(b1-4)Glc. Put shortly:
as §1

The target of a further experiment is Fuc(a1-2)Gal(b1-3)GlcNAc. Put shortly:
as §1

Experiment [6] has as its target Fuc(a1-2)Gal(b1-3)GlcNAc(b1-2)Man(a1-3)[Fuc(a1-2)Gal(b1-3)GlcNAc(b1-2)Man(a1-6)]Man(b1-4)GlcNAc(b1-4)GlcNAc. Put shortly:
as §1

For experiment [7], the target named is Fuc(a1-2)Gal(b1-3)GlcNAc(b1-2)Man(a1-3)[Fuc(a1-2)Gal(b1-3)GlcNAc(b1-2)Man(a1-6)]Man(b1-4)GlcNAc(b1-4)[Fuc(a1-6)]GlcNAc. Put shortly: as §1
The target in experiment [8] is Fuc(a1-2)Gal(b1-3)GlcNAc(b1-3)Gal(b1-4)Glc. Put shortly: as §1
In experiment [9] the target is Fuc(a1-2)Gal(b1-3)GlcNAc(b1-3)GalNAc. Put shortly: as §1
Experiment [10] addresses Fuc(a1-2)Gal(b1-3)GlcNAc(b1-3)[Fuc(a1-2)Gal(b1-3)GlcNAc(b1-6)]GalNAc. The gist of the method: as §1
Experiment [11] concerns the target Fuc(a1-2)Gal(b1-3)GlcNAc(b1-3)[Gal(b1-4)GlcNAc(b1-6)]Gal(b1-4)Glc. Put shortly: as §1
Experiment [12] has as its target Fuc(a1-2)Gal(b1-3)GlcNAc(b1-3)[Neu5Ac(a2-6)Gal(b1-4)GlcNAc(b1-6)]Gal(b1-4)Glc. The gist of the method: as §1
Experiment [13] concerns the target Fuc(a1-2)Gal(b1-3)GlcNAc6S. The gist of the method: as §1
The target in experiment [14] is Fuc(a1-2)Gal(b1-3)[Fuc(a1-4)]GlcNAc. The gist of the method: as §1
Experiment [15] concerns the target Fuc(a1-2)Gal(b1-3)[Fuc(a1-4)]GlcNAc(b1-2)Man(a1-3)[Fuc(a1-2)Gal(b1-3)[Fuc(a1-4)]GlcNAc(b1-2)Man(a1-3)]Man(b1-4)GlcNAc(b1-4)GlcNAc. Put shortly: as §1
Experiment [16] has as its target Fuc(a1-2)Gal(b1-3)[Fuc(a1-4)]GlcNAc(b1-2)Man(a1-3)[Fuc(a1-2)Gal(b1-3)[Fuc(a1-4)]GlcNAc(b1-2)Man(a1-6)]Man(b1-4)GlcNAc(b1-4)[Fuc(a1-6)]GlcNAc(b1-4)[Fuc(a1-6)]GlcNAc. The gist of the method: as §1
Experiment [17] addresses Fuc(a1-2)Gal(b1-3)[Fuc(a1-4)]GlcNAc(b1-3)[Fuc(a1-3)[Gal(b1-4)]GlcNAc(b1-6)]Gal(b1-4)Glc. The gist of the method: as §1
Experiment [18] deals with Fuc(a1-2)Gal(b1-3)[Fuc(a1-4)]GlcNAc(b1-3)[Gal(b1-4)GlcNAc(b1-6)]Gal(b1-4)Glc. Put shortly: as §1
Another experiment concerns the target Fuc(a1-2)Gal(b1-4)Glc. Put shortly: as §1

The list shows a part of the results.

B1: Thrombomodulin (Mus musculus) (protein)
chain: ALAKLQPTGSQCVEHECFALFQGPATFLDASQACQRLQGHLMTVRSSVAADVISLLLSQSSMDLGPWIGLQLPQGCDDPVHLGPLRGFQWVTGDNHTSYSRWARPNDQTAPLCGPLCVTVSTATEAAPGEPAWEEKPCETETQGFLCEFYFTASC
Consider B1, for which the “glycan array binding signal (z-score)” value with Fuc(a1-2)Gal is -0.097; in the experiment with Fuc(a1-2)Gal(b1-3)GalNAc it was -0.11; in experiment [1], 0.003; in [2], -0.25; in experiment [3], -0.118; in experiment [4], 0.268. Also, the “glycan array binding signal (z-score)” value in experiment [5] is -0.317; with Fuc(a1-2)Gal(b1-3)GlcNAc it was -0.262; in experiment [6] it was 0.05; in experiment [7], 0.263; in experiment [8] it was -0.119; in [9], -0.228. The “glycan array binding signal (z-score)” value was -0.155 in [10]; -0.012 in experiment [11]; 0.033 in [12]; -0.284 in [13]; 0.227 in [14]; 0.555 in [15]. Moreover, the “glycan array binding signal (z-score)” value in experiment [16] is 0.279; in experiment [17] it was -0.334; in [18] it was -0.262; with Fuc(a1-2)Gal(b1-4)Glc it was -0.284.
